Data taken from the supplement of paper PMC3334620.
The full ranking holds about 33,000 sequences; the median of “E-score (-0.5 to 0.5)” is about -0.04, and the highest 2% start at about 0.36. The list shows a part of the results.

biological target: T1, Hmlalpha2 (UniProt P0CY09); experiment: PBM E-score (8-mer binding enrichment) (E-score (-0.5 to 0.5)); higher = stronger / more preferred TF binding; most listed sequences are background and not binding sites; settings: protein concentration: 200 nM; construct: GST-full length
T1 sequence: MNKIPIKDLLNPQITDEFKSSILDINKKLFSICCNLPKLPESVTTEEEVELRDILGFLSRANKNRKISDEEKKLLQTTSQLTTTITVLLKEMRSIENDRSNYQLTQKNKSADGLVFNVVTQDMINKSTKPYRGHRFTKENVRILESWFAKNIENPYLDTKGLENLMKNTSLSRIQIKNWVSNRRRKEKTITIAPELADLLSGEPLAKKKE
Experimental: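 Universal 'all 10-mer' protein binding microarrays (Agilent AMADID 015681) probed with GST-tagged S. cerevisiae TFs (full-length or DBD) made by in vitro transcription/translation (PURExpress), about 100-200 nM. Bound TF was detected with fluorescent anti-GST. Each ungapped 8-mer (which stands for itself and its reverse complement) is scored by the PBM enrichment score (E-score), a modified Wilcoxon-Mann-Whitney statistic from -0.5 to +0.5, computed with the Universal PBM Analysis Suite. Scale: above 0.35 generally sequence-specific binding.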

Compared with AGTCGACT, ACTTGGAG is lower in “PBM E-score” value: 0.101 for the first, -0.127 for the second.

First: CTGATGTC
Second: ACTGAACC
The “PBM E-score” value of the first is higher: -0.0651 for the first, -0.136 for the second.

Going from AACGGCGA to GGGCATCA, the “PBM E-score” value falls from 0.00205 to -0.287.

Going from GACTGATA to CGGTACAC, the “PBM E-score” value rises from -0.292 to 0.152.

First: AACAAGAC
Second: ACTAACGC
The “PBM E-score” value of the first is higher: 0.302 for the first, 0.174 for the second.

First: AGCTCCGC
Second: AGGGGGGA
The “PBM E-score” value of the first is higher: -0.0433 for the first, -0.325 for the second.

Compared with AATGGTGC, ATTCTTCA is higher in “PBM E-score” value: -0.0678 for the first, 0.0824 for the second.

Going from TAGTTCCA to CACTGGGA, the “PBM E-score” value falls from 0.135 to -0.145.

Compared with AATATCTG, GCACTACA is higher in “PBM E-score” value: -0.118 for the first, 0.232 for the second.

Compared with ATCGATTA, CCAATGCC is lower in “PBM E-score” value: 0.267 for the first, -0.258 for the second.

Going from ACGTATCT to ATTTAACG, the “PBM E-score” value rises from 0.0288 to 0.355.

Compared with GAAACCGC, AATGTTGG is higher in “PBM E-score” value: 0.0628 for the first, 0.137 for the second.

First: AAGGGCCT
Second: CGTAGCCC
The “PBM E-score” value of the first is lower: -0.136 for the first, -0.0733 for the second.

Going from GAGCGTCC to AATGGACG, the “PBM E-score” value rises from -0.115 to 0.135.

Compared with AGAGTCGC, ACTCCTAG is higher in “PBM E-score” value: -0.17 for the first, -0.0148 for the second.

Going from ATGACACC to TCGGAACA, the “PBM E-score” value rises from 0.0347 to 0.144.

First: GGGGCTGA
Second: AGCATTCG
The “PBM E-score” value of the first is lower: -0.248 for the first, -0.151 for the second.

Going from GGATCTTA to ATCATAAC, the “PBM E-score” value rises from -0.109 to 0.249.

Compared with CTAGAAGC, CCAGTAGA is higher in “PBM E-score” value: -0.205 for the first, -0.0536 for the second.

First: ACAGATTA
Second: AGGATGCC
The “PBM E-score” value of the first is higher: -0.0244 for the first, -0.132 for the second.

Going from AGTAGAAC to ACCTTAGA, the “PBM E-score” value falls from 0.0855 to -0.138.

Compared with AGAAGCTG, CGGAGTCA is higher in “PBM E-score” value: -0.11 for the first, -0.0965 for the second.

Going from AGTATAAC to CAGGGCCG, the “PBM E-score” value falls from 0.216 to -0.121.

Going from CAACCCTC to ATTGCTGC, the “PBM E-score” value rises from -0.117 to 0.00514.

Going from CCCGGCTA to GGTTAACA, the “PBM E-score” value rises from -0.265 to 0.412.

Compared with CTATTAAA, AATTAGTG is higher in “PBM E-score” value: 0.0983 for the first, 0.232 for the second.

Going from CCTGGCAC to GAATCCCA, the “PBM E-score” value rises from -0.168 to -0.143.

First: TCGTTCAA
Second: TATCCCGA
The “PBM E-score” value of the first is higher: 0.11 for the first, -0.0202 for the second.

First: CAGGTCTC
Second: CGCGCGGC
The “PBM E-score” value of the first is lower: -0.177 for the first, -0.012 for the second.

First: CAAAAAGC
Second: ATCTTAAC
The “PBM E-score” value of the first is lower: -0.141 for the first, 0.339 for the second.

First: AACAATTC
Second: AGGTTTAG
The “PBM E-score” value of the first is higher: 0.117 for the first, -0.124 for the second.

Going from ATTGTCCA to GCTCGGCA, the “PBM E-score” value falls from -0.0263 to -0.136.

First: CTGAGTAC
Second: CCGGCATA
The “PBM E-score” value of the first is higher: -0.0411 for the first, -0.22 for the second.

First: CGTCTAAA
Second: CAATCTAC
The “PBM E-score” value of the first is lower: 0.00262 for the first, 0.2 for the second.

Going from GGTGCGAC to CCAGATAC, the “PBM E-score” value falls from -0.189 to -0.233.

Compared with GCTCAATA, CAGAATAA is higher in “PBM E-score” value: -0.0756 for the first, 0.0622 for the second.

First: AACCCTAT
Second: AGTTCAAA
The “PBM E-score” value of the first is lower: 0.00499 for the first, 0.0745 for the second.

Going from AGGCCTAG to GCATTATA, the “PBM E-score” value rises from -0.209 to 0.0956.

First: CTGCAGAC
Second: ATAAATAG
The “PBM E-score” value of the first is lower: 0.00028 for the first, 0.0878 for the second.

First: AAGTTCGC
Second: ACTGCCCC
The “PBM E-score” value of the first is higher: -0.0506 for the first, -0.336 for the second.

Going from TCAGTAGA to GGAATGAA, the “PBM E-score” value rises from -0.138 to 0.0613.

Compared with AAGTACAT, TCCTGTCA is lower in “PBM E-score” value: 0.383 for the first, -0.0189 for the second.

Compared with CTAGGAAG, CACCCGTG is higher in “PBM E-score” value: -0.16 for the first, -0.0312 for the second.

Compared with CGTGGTTC, AATTCCCC is lower in “PBM E-score” value: -0.166 for the first, -0.214 for the second.

Compared with CTTTAGAC, GTCTATTA is lower in “PBM E-score” value: 0.116 for the first, 0.0186 for the second.

Compared with GAACTGTC, TTATAAAA is higher in “PBM E-score” value: -0.114 for the first, 0.199 for the second.

Going from ACTCGCAG to AGGCGATG, the “PBM E-score” value rises from -0.176 to -0.128.

First: CGAACTCG
Second: CCTCAGCA
The “PBM E-score” value of the first is higher: -0.0641 for the first, -0.254 for the second.

First: GAGAGGAC
Second: CCGTCGTA
The “PBM E-score” value of the first is lower: -0.129 for the first, -0.0843 for the second.

Compared with CCTTAGAG, CCTATTCA is higher in “PBM E-score” value: -0.462 for the first, -0.319 for the second.

First: TCTACTCA
Second: AACTCCCC
The “PBM E-score” value of the first is higher: 0.141 for the first, -0.0491 for the second.

Compared with CACTTGGC, CCGTAATC is higher in “PBM E-score” value: -0.0529 for the first, -0.00299 for the second.

First: AAGGACCC
Second: AAGACCCT
The “PBM E-score” value of the first is lower: -0.342 for the first, -0.118 for the second.

First: GAAAATCC
Second: ACGAGATA
The “PBM E-score” value of the first is lower: 0.00022 for the first, 0.152 for the second.

First: GTATGGAC
Second: GGATATCA
The “PBM E-score” value of the first is higher: -0.0462 for the first, -0.121 for the second.

Going from GCGCACGA to TCTCCACA, the “PBM E-score” value falls from -0.075 to -0.126.

Compared with CAGAGGCC, CACTGCGG is higher in “PBM E-score” value: -0.259 for the first, -0.172 for the second.

First: AACAATGC
Second: ACAGAACG
The “PBM E-score” value of the first is higher: 0.247 for the first, 0.00788 for the second.

First: AGGTCCGG
Second: CTCCGCTA
The “PBM E-score” value of the first is higher: -0.045 for the first, -0.267 for the second.

Compared with AAGTCCGC, GCTACCGA is lower in “PBM E-score” value: -0.0902 for the first, -0.172 for the second.

Going from CGCCTGCC to AGGATCCA, the “PBM E-score” value falls from -0.194 to -0.265.

Going from GCTCTCAC to CCTCACCC, the “PBM E-score” value rises from -0.251 to -0.226.

Going from AAGCTCAT to ATATCGTC, the “PBM E-score” value rises from -0.159 to 0.0518.

Going from GCAAATCA to AACGCTAC, the “PBM E-score” value falls from 0.0387 to -0.0489.

Compared with AACCTCTT, ACGCTGCA is lower in “PBM E-score” value: 0.193 for the first, -0.0419 for the second.

Compared with CCGAGAAC, CGCTATCA is lower in “PBM E-score” value: -0.068 for the first, -0.21 for the second.

First: AAATAGCG
Second: CAACCGTA
The “PBM E-score” value of the first is higher: 0.0875 for the first, -0.00637 for the second.

First: GGATCGAA
Second: GACGCACC
The “PBM E-score” value of the first is higher: 0.0758 for the first, -0.211 for the second.

Compared with CAAAACTA, AATCCTCA is lower in “PBM E-score” value: 0.291 for the first, -0.0398 for the second.

Going from AAGCTGCC to ACCTTGTA, the “PBM E-score” value rises from -0.255 to 0.402.

Compared with CACGAAAA, GTCGGTGA is lower in “PBM E-score” value: 0.197 for the first, -0.299 for the second.

Going from GATCCCTA to AGGCCTAA, the “PBM E-score” value falls from -0.0824 to -0.115.

First: ACACCTTG
Second: AACTCCCA
The “PBM E-score” value of the first is higher: 0.206 for the first, -0.257 for the second.

First: CCGTTTTC
Second: CCCCTGTC
The “PBM E-score” value of the first is higher: -0.0908 for the first, -0.152 for the second.

First: ATAATATG
Second: GATGACTA
The “PBM E-score” value of the first is higher: 0.117 for the first, -0.0544 for the second.

First: ATACTAGC
Second: GGATCAAC
The “PBM E-score” value of the first is lower: 0.0167 for the first, 0.105 for the second.

First: CAATGTAC
Second: CGGCTAAC
The “PBM E-score” value of the first is higher: 0.217 for the first, -0.00719 for the second.

First: GATTTCCC
Second: AGCGGACT
The “PBM E-score” value of the first is lower: -0.183 for the first, -0.111 for the second.

First: AACGTTAA
Second: ATTAGGAA
The “PBM E-score” value of the first is higher: 0.28 for the first, 0.0653 for the second.

Compared with GAATGTAC, ATTTACAC is higher in “PBM E-score” value: 0.16 for the first, 0.479 for the second.

First: CCCCATTA
Second: CCGGCCAG
The “PBM E-score” value of the first is higher: 0.0001 for the first, -0.224 for the second.

First: ATCCGGAC
Second: ATTGCTGA
The “PBM E-score” value of the first is lower: -0.0342 for the first, -0.00766 for the second.

Going from GATAGAAC to AGATCTTC, the “PBM E-score” value falls from -0.0452 to -0.0516.

Going from CCCGGGGA to ATAAAAAT, the “PBM E-score” value rises from -0.262 to 0.145.

First: CTGTAATA
Second: ATTGGTTG
The “PBM E-score” value of the first is higher: 0.286 for the first, -0.119 for the second.

Going from AAGAACGC to CTCGAGCC, the “PBM E-score” value falls from 0.18 to -0.0233.
